According to PMC10284923 (The ISME Journal, 2023):

Tested on: CC9605_PhnD1
Assay: Second DSF screen of 60 individual P-sources

| SMILES | Increase in thermal stability (ΔTM) |
| --- | --- |
| O=C(O)COP(=O)(O)O [phospho glycolic acid] | marked increase in the thermal stability |
| NC(=O)OP(=O)(O)O [carbamyl phosphate] | marked increase in the thermal stability |
